{
  "source": "patent US20260234269A1",
  "about": "(TRUEBINDING, published 2026)",
  "binders": {"B1": {"name": "Flag-tagged human Gal3 expressed in 293T cells (ligand)", "chain": "not shown", "notes": "In cell lysates (co-IP, pull-down); also called Flag-tagged Gal3; Flag-human Gal3; not shown: Flag tag"}},
  "molecular_target": "T1, HA-tagged human TIM-3 expressed in 293T cells (human, UniProt Q8TDQ0 22-301)",
  "T1 construct": "In cell lysate; also called HA-tagged hTIM-3; hTIM-3; not shown: HA tag",
  "T1 sequence": "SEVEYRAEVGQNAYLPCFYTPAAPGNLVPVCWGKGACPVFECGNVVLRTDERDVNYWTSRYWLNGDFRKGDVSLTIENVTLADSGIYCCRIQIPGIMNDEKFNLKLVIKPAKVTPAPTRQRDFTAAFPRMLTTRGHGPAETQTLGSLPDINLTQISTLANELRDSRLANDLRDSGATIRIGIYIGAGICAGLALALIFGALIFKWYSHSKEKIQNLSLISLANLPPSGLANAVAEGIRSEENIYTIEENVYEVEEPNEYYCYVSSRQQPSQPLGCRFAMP",
  "experiment": "co-IP, anti-Flag beads, co-transfected 293T lysate, anti-HA blot",
  "data": [
    {"binder": "B1", "values": [
      {"measurement": "binding result", "result": "binds"}
    ]}
  ]
}
